# ± gives the standard deviation of the averaged measurements. Over roughly 4,100 sequences, “arbitrary fluorescence units” has its median near 780; the highest 2% begin near 22,000. This is one part of the list.
# Biological target: T1, ETS1 (UniProt P14921)
# T1 sequence: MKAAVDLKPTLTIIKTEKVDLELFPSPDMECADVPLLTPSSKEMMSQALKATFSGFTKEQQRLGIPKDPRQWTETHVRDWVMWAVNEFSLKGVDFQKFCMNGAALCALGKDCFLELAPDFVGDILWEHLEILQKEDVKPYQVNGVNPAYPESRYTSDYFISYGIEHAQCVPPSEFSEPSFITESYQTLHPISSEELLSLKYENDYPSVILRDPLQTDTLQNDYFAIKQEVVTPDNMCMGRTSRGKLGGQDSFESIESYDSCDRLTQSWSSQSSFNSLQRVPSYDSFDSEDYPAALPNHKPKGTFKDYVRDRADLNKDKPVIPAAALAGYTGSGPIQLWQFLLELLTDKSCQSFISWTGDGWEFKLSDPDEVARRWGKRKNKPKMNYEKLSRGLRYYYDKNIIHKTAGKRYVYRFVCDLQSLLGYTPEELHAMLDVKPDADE
# Assay: ETS1 binding intensity (PBM fluorescence), ETS1 alone (arbitrary fluorescence units); higher = stronger binding
# Conditions: ETS1 concentration 1 nM; RUNX1 concentration 0 nM
# In short: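 Full-length recombinant human ETS1 (1 nM, no RUNX1) was incubated, per standard PBM protocols, on double-stranded Agilent 4 × 180k arrays of 36-bp genomic probes whose RUNX1 partner site was mutated. Bound ETS1 was detected with anti-ETS1 antibody (Cell Signaling Technology 14069) and Alexa488-conjugated secondary antibody, then scanned on a GenePix 4400A. Binding level is spot fluorescence intensity, summarised over replicate spots (four printed per sequence) and not normalised.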
row,Sequence,ETS1 binding intensity
1,CCTTCCCCTTCCGGAGAGCCCTCCGCTGGGTCCTAA,4250
2,CGGGCCTGCAGCAGATCCTGGATCCGGAATCTCCCG,445
3,GTTCTTCCACGTCCGCGTTACCTACAACGGCAGTGG,816
4,GTGTAACGTCCGTATGCATATCTATTTGGGGCCACC,499
5,GCATGCTCAGTTTCGGGCGGCGTCCGGAGGAGGTGG,419
6,ATGACTTAGCAACATCCTGACAACCTCTACATTGTC,1680
7,ACAAAACAAACACATCCCCCAAACCTCCAAACTACA,532
8,GACCCACTGCTGTCATGCTGCTTCCTGCCCAACCCG,2240
9,CTCCGCGCGGGCGCTGAGACTCCTGGGAAGTGTGGT,338
10,ACAGGTTCAGGAAGCGGCCGTGCTTGTTAGTGGTGT,611.2 ± 0.9
11,TGGACACCGGGAAACTGAGCGGCCTGCTGGTCCAGA,422
12,GGGGCAGCTTCCGGCAGGAGAGCTCGCATTCACGGC,20700
13,AACCCTGAGACAGCAGCAGCCACTTCCTGGGTGAGG,1970
14,GACAGAGGAAACTAGGTGTGACAACTACAAACAGCT,620
15,AACAGAGTAGGTTGTAAGGGACTTCCTGTGCATATA,3500
16,GGTTGGTAGTTCGATCCCACCCAGGGACGGAAGTCG,555
17,CCTGTACGGAAGCTACTCTGGTTTCATGTGATTTCG,589
18,AAAGGGAAGTTGGCGGGAGTTCAAATCCACCGGGGC,575
19,GATGAAAGAGGAAGTTCTCAAGCCACCTTGCCAGTG,1950
20,GCAATCTTGACCCCAACATGGAGACAGGAAATCAAA,1090
21,GTTGGGTGGGGAAGTGGATGGTGCTTTTGGCAGAGG,639
22,GTTTCAGTATTTCCTGGTGCGGCGTACCTCACCTAC,4400
23,GGGGCAGCTTCCGGCAGGAGAGCTCGCATTCCCGGC,14700
24,AACTTCCTCCGCGCGGGGCCACTGCTACCCCAAAGG,8780
25,TCCCGCCTACCTCGAAAAACGCGGAAATACGGTGGC,428

row,Sequence,ETS1 binding intensity
1,AGCCTGAACTGAGGAAACTACAGCCCCAGATTGCCT,501
2,CAGCAATACGACAAGCTGTTTAAGGATGTTCCCTTG,789
3,GGTGGCCGCCGGAAGTGTGACCTCGGGAGGGGAGTG,9890
4,GGTCTGGAGGATGTTTGCAGCTGCTGTAGGTGGTGG,504
5,GGCGTGCTTTCGGCCCCGGCGCAGCCGGATCTGGCA,329
6,GGGCAGGCCGGATGTGGGAGACCCCAAAGCCCAAGG,11000
7,GGGATCCTTCCGCTCCGGGTTAACCCCGAGCGCGCC,5110
8,TACAGGAACTTCCTGCGCGGCTGCTGTCGTTGCGAG,7850
9,ATCTTAAGTGTTTCCTGACACCAGAAATCCCCAAAC,1600
10,AGGGTGTACTCGGAAGTTTCGAGTGGCTGCTTGGTT,414
11,GGAGGGGGAAGTGGGCGGCTCAGCGCCCGCCATCTT,877
12,GTTTCCACTTCCTGCTGTGCAGCAGTACCAGCAAGA,19700
13,CGAAGCCGGAAATGCTGAGTGCGCGGGGCCGAACGT,12500
14,GTAAATAAAGAGGAAGTCCCTATGAGGGGGATGGGG,1570
15,CTGGCCCCTTCCTGCACCTGGGCTGTCCCCAGAGCA,2050
16,GGTCACGTGTCCACGGGGACCGGAAGTGGCGCCCGG,14400
17,ACCTCTTCGGCGTCACTGGGAGCCCGACGGAAAACT,429
18,GGGGACCGGAAAGGGAGGGGTGGGCCGTAGGCGCCG,4430
19,CTTAAAACCCCAACACAATAACACCAGAGGAAATGA,526
20,ACAGTACACGCACACCTAGCTTTCCTGTCTGCAGAG,564
21,GCTCGTTTGGGGTTACTGACATCCGGCCTTCATTTC,5140
22,CCGCTGACATCCGCTTGGCCTGCAGCTTCTTTCTGT,12100
23,GTAGAGACAGGAAATTATGTTGGATTTCTTGCAGAA,3700
24,CAGAAAAGGCAGGAAGTGGTACAAACCCCAAAAGGC,9240
25,AAAGTATCTTCTGAGGTGAATCGGAAACAAAACTCA,509

row,Sequence,ETS1 binding intensity
1,GCAACAGGAAGGACCAAGTCCCCTCCCGAAATTTTA,1790
2,CGAGTCAGGAAATCACAGCTCTGAGGGTGGGCTCCT,664
3,TAGCCACGAACCGGAAACGTTAAACTACAGCTCCGT,12600
4,CGGCGGAAGGCGGACTCTCGCGGGAGCTACAAAGAG,466
5,TATTTCCTCCTGCAGGTCTGTTCTTTGCCGCCTGAA,11900
6,GCCTTCGGTGTGGACTCGCATCATTTCCTCTTTCTG,847
7,ACGTCTGTTTCCTGTGATTGAAATCGCAAGAAGAAG,9820
8,ATCTTCCGTAGCAGTCAGGTGTTTTGGGGTTTGCAG,1690
9,GGCCGCGCTGGGGTGTGTACAGATTTCCGCGGCGCC,381
10,GCTGCCTTGAGGGCACGGTAGTTCCGCCGGGTCTGG,314
11,GCCGGAAGCCACGCAGGGCCACGTCTGGGGTTCTGA,1040
12,CCCCGAGGTCGTCGCGCGAACTCCTTCCGCGCGTCG,362
13,CTGGGCCGTAGTTCAGGTGGCTGGCGGAAACGGGAG,510
14,GCTCGCCGCGCGTTCGACAACCCCATCCTGCGCTCG,351
15,CTCCATCTCCCAGAAGCCCTCCTTCACTTCCGGCTC,2020
16,TCCAAATCACATGAAATAAGCAAGGGAAGTGGCAGC,544
17,GACCATGGAGCTGCAGCCGAGTTCCGTGTCCACTTC,317
18,TTCTTTGGTCAACCCCAAGCCTCTTCCGCGTCTCGC,445
19,AACCATTACAGGATGTGAGATTCAAAGCACTAACAG,5220
20,ACGCCATTCGGTGGCACGGGGATGTGTAAAAATCGT,343
21,CCGCCGCGCGCCGGATGCTAAGACCTCGATTTCCCC,1420
22,TAATACAGTTCTGGTTAAAGGAAGCTCATTTTTTTC,488
23,TGGCCGGAATCTCCGGACTGAAAATCCGCTGTCCTA,475
24,TGAGGAAGTGTAAGTCACAATAAGAAGTCACATATA,552
25,AGCAGCTTCCCGTCTGAGGTGAAGACAGCCCTCAGC,7140

row,Sequence,ETS1 binding intensity
1,CCCTCATCTTCCTGCTTCAGGCAGCTGTGATTTACC,2890
2,ATGGATGGGGTTGCTTGCGTGAGGAAATACTTGATG,524
3,TACCCCGCCGGAAGCCCCCTGCTCTCTGGGAACCGG,1900
4,ACTGAGGGCTACCTCCCCCACACCACTTCCGCCAAG,2040
5,ACTGTTATTGTAGTTTTTGGGGACTTCCTCTTTGTC,871
6,TGACAGACCCGGAAATAAGAGGAGACAACACACTTG,4440
7,AAACAAAGTCAAAGCACAGCACTTCCTGCATTCTGG,2890
8,ACGTACGGGATGTGGGAGGTTTGTTTTGACAACACC,646
9,AATGTAGGAAATTCCACTGCATAATTTGGGGTAGTG,391 ± 4.5
10,GGGCAATGTCGTCGCCAGACCATCCTGTCACTTAGG,520
11,TAACCCTGTTTTATCACATCATTTCCTGCTGAAGAG,2800
12,TCAAAGAGGCAGTGCTTTATAATTTCCTCTTGACTG,655
13,TGACGGTGAGCGCTTCAGGTCAGGACCGGAAGTGCC,7850
14,CACCCTCAACTTCCTGACCCATAAACCCCAAGCTAT,5730
15,GATACTCTTCCTGTCATCCCATCCCCTCAGCCTTAG,6330
16,ACTGGGGCTGAGACACAGAAGGGAAAGGATGTGACC,438
17,ACAGTGTGCTTGTGTTTTCTGTGCATCACTTCCCTG,439
18,TTTACAGGAAATTACAGGGGTTAAACCAAACCCCAA,2570
19,GTCTTGTTTTGGGGTGTAAGCACTTCCCGCTAAGCA,665
20,CGGCAGCTTGCGCTTAGCCGTTCTTTCCGCCCAGTT,314
21,GGTAAACCATGCGCTCGATGGGGAGGATGTGGAGAT,389
22,AATATGAGGGCTGAGGCGATGGTTTCCTGGGGTGCT,382
23,CGTTTCCTCGCGGGCCGGCGCACCTCGCGATCACTT,2090
24,GCCAGGCGGGCGCTGATCCCCAGAACATCCGGGAGC,1170
25,AGGCTGCGACCAGCGGGCGGAGGAAGGGGGTGGCCT,452

row,Sequence,ETS1 binding intensity
1,ATTCGTTTCGGCAGCGCAGCAGCCACCGGACAAGCA,377
2,GGCCCACATCCTTATGACTCAGCAGATGCGCCTGTC,1580
3,GCTCCGCTTCCGGGAGGCGGGGCTTCTCCGGGTTCC,9540
4,GAGGTGCTCAGAGCCTCCCTTGACAGGAAACAAGAA,728
5,TCATGTATCACTGCAACACCGGATCCTTAGCCACTG,412 ± 9.2
6,GATGACGTCACCAGAGTAAGACAACAGGATACCGCT,414
7,ACGCCCGCTGACAACACTGGCGACTTCCCTCTCTGT,417
8,ACCTCCACCCCAAAGAACAAAAAAGGAAGGATAAAA,527
9,TGGAAGCTTCGGCCGCCTCGCACCCGGAACAACAAA,340
10,GTCCCTGTTTCCTCCCTCAGCTCCCGAAACCTCCGG,2490
11,GCAGGGACCGGAAGTCCATGGCTCTGCCGCCACCCT,18000
12,TGGTTGTAGTTTGGAGATTCTGATGTCATTTCCTGT,1270
13,AGCCCGGCTTCCGGCGCGTGCCGCTGCAGCTGCAGG,11200
14,GCCTTTCTGGAGCCCCAAAGACAGGAAGAGAGCGTC,693
15,GATAAGCGGATTCTAATGAGCTCACTGGTTTCCGAT,410
16,AATACCCTCTGGTGGCCGCCGGAAGTGTCGCGGCGG,2280
17,GGTCCAGGAAGACGTCAAGGGCTTGGATTTGTAAAC,437
18,AAGTTGATTTCCGGGTAGTCTGTAGTTTCCTAATCA,10600
19,GCTGGGCCATCCTGCCACATGCACCTCATCTCTGGG,923
20,CTACCGTGCCCTCAAGGCAGCGCGCCGGAAGCCCCG,573
21,AGAGGAAGTAAATTCTAACAGTGGAAATCACAGATT,496
22,CTCTTCAGCAGGAAATGATGTGATAAAACAGGGTTA,3070
23,GGCTTCCGCCTGCCGAGCGGCCCCGGACTGCAGGCC,9840
24,GCAAACACACCAGAGACTGCAGACCCGGAAGAACTT,525
25,TACGGCGGGAACCCCAATCGCGCAGTTCCGCAGCTG,317
